# From PubChem BioAssay (Tox21)
# Several values for one entry are separate records, joined by “and”; a condition that tells them apart may be missing. Identical values can stand only once. The inconclusive results got no clear call from the source; some entries with a clear call stand among them for comparison. For some assays here: A potency beside an inconclusive call is a rough fit, not a confirmed value. Some structures have more than one record in an assay (separate samples or runs), and their calls can disagree. Activity calls are given as the source filed them. Unless noted, calls come from the whole dose curve.
# Tests used:
# [1] = qHTS assay for small molecule agonists of the p53 signaling pathway (AID 651631); settings: HCT-116 p53RE-bla reporter, beta-lactamase FRET ratio, 16 h; activation: at 73.3 µM (top of the series) unless noted; note: potency is the fitted concentration of half-maximal effect; nearly all actives have a fitted effect of over 15% in size
# How it was run: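 Readout was fluorescence from the LiveBLAzer FRET substrate, applied for 2 h at room temperature after 16 h compound exposure at 37 °C. Cells were the p53RE-bla HCT-116 line, with beta-lactamase driven by p53 response elements.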
# [2] = qHTS assay for small molecules that induce genotoxicity in human embryonic kidney cells expressing luciferase-tagged ATAD5 - cell viability (AID 651634); note: potency is the fitted concentration of half-maximal effect; nearly all actives have a fitted effect of over 25% in size
# How it was run: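 Cytotoxicity counter-readout: after 15.5 hr compound treatment at 37C, live-cell protease activity in ATAD5-luciferase HEK293T cells measured by CellTiter-Fluor fluorescence, 30 min development at 37C.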
# [3] = qHTS assay for small molecule disruptors of the mitochondrial membrane potential - cell viability (AID 720634); note: potency is the fitted concentration of half-maximal effect; nearly all actives have a fitted effect of over 20% in size
# How it was run: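 Cytotoxicity was quantified from ATP content by CellTiter-Glo luminescence in the same wells as the MMP dye read-out. HepG2 (2,000 cells/well) were plated overnight and exposed to compounds for 1 hr at 37 C.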
# [4] = target: Glucocorticoid receptor (Homo sapiens) (UniProt P04150); assay: qHTS assay to identify small molecule agonists of the glucocorticoid receptor (GR) signaling pathway (AID 720691; active = well fitted activation curve with a large enough effect in the signal ratio in the repeat runs, not every such curve was filed as active; inconclusive = weak or mixed curves, or effect the other way; inactive = no such curve, though single readings can be large or run the other way; the % refers to the signal ratio; note: potency is the fitted concentration of half-maximal effect); settings: GR-bla HeLa, beta-lactamase reporter ratio, 18 h; activation: at 62.4 µM (top of the series) unless noted
# How it was run: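 Agonist-mode qHTS in HeLa cells stably expressing a glucocorticoid-response-element beta-lactamase reporter. Fluorescence intensity read with FRET substrate (2 h, room temperature) after 18 h compound treatment at 37 C.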
# [5] = target: Glucocorticoid receptor (Homo sapiens) (UniProt P04150); assay: qHTS assay to identify small molecule antagonists of the glucocorticoid receptor (GR) signaling pathway (AID 720692; active = well fitted inhibition curve with a large enough effect in the signal ratio in the repeat runs, not every such curve was filed as active; inconclusive = weak or mixed curves, or effect the other way; inactive = no such curve, though single readings can be large or run the other way; the % refers to the signal ratio; note: potency is the fitted concentration of half-maximal effect; for activity change, negative = inhibition: % is set by controls: 0 for no effect and ±100 for the full control effect); settings: GR-bla HeLa, beta-lactamase FRET ratio, dexamethasone-stimulated, 18 h; activity change, negative = inhibition: at 58.5 µM (top of the series) unless noted
# How it was run: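 Inhibition of dexamethasone-driven (5 nM final) beta-lactamase expression was measured in GRE-reporter HeLa cells over 18 h at 37C. Fluorescence was read after 2 h with the B/G FRET substrate at room temperature.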
# [6] = qHTS assay to identify small molecule antagonists of the glucocorticoid receptor (GR) signaling pathway - cell viability counter screen (AID 720693; active = well fitted curve in the direction sought with a large enough effect in the repeat runs; inconclusive = weak or mixed curves; inactive = no such curve, though single readings can be large; an effect the other way counts as inactive or inconclusive; note: potency is the fitted concentration of half-maximal effect; nearly all actives have a fitted effect of over 55% in size); settings: GR-bla HeLa viability, CellTiter-Glo luminescence, 18 h, with 5 nM dexamethasone present; viability change, negative = cytotoxic: at 58.5 µM (top of the series) unless noted
# [7] = qHTS assay for identifying genotoxic compounds that show differential cytotoxicity against isogenic chicken DT40 cell lines with known DNA damage response pathways - wild type cell line (AID 743012; active = well fitted curve in the direction sought with a large enough effect in the repeat runs; inconclusive = weak or mixed curves; inactive = no such curve, though single readings can be large; an effect the other way counts as inactive or inconclusive; note: potency is the fitted concentration of half-maximal effect; nearly all actives have a fitted effect of over 60% in size); settings: DT40 wild type chicken cells viability, CellTiter-Glo, 40 h; activity change, negative = cytotoxicity: at 68.4 µM (top of the series) unless noted
# How it was run: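 Viability by ATP luminescence (CellTiter-Glo, 30 min RT) after 40 h compound treatment at 37 C/5% CO2, using 300 parental DNA repair-proficient DT40 cells per well.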
# [8] = qHTS assay for small molecule agonists of the p53 signaling pathway - cell viability (AID 651633); note: potency is the fitted concentration of half-maximal effect; nearly all actives have a fitted effect of over 30% in size
# How it was run: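 Viability counter-read: CellTiter-Glo luminescence (30 min, room temperature) in the same p53RE-bla plates. These plates had been exposed to compounds for 16 h at 37 C.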
# [9] = qHTS assay to test for compound auto fluorescence at 460 nm (blue) in HepG2 cells (AID 720687; active = well fitted curve in the direction sought with a large enough effect in the repeat runs; inconclusive = weak or mixed curves; inactive = no such curve, though single readings can be large; an effect the other way counts as inactive or inconclusive; note: % is set by controls: 0 for no effect and ±100 for the full control effect)
# How it was run: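 Blue-channel autofluorescence (Ex/Em 405/460 nm, triamterene-equivalent) was measured after 1 hr compound exposure at 37 C, 5% CO2. Cells were HepG2, plated overnight at 37 C in MEM plus 10% FBS.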
# [10] = qHTS assay for identifying genotoxic compounds that show differential cytotoxicity against isogenic chicken DT40 cell lines with known DNA damage response pathways - Rev3 mutant cell line (AID 743014; active = well fitted curve in the direction sought with a large enough effect in the repeat runs; inconclusive = weak or mixed curves; inactive = no such curve, though single readings can be large; an effect the other way counts as inactive or inconclusive; note: potency is the fitted concentration of half-maximal effect; nearly all actives have a fitted effect of over 55% in size); settings: chicken DT40 Rev3-/- viability, CellTiter-Glo, 40 h; activity, negative = cytotoxicity: at 68.4 µM (top of the series)
# [11] = qHTS assay for small molecule disruptors of the mitochondrial membrane potential (AID 720635; active = well fitted curve in the direction sought with a large enough effect in the repeat runs; inconclusive = weak or mixed curves; inactive = no such curve, though single readings can be large; an effect the other way counts as inactive or inconclusive; note: potency is the fitted concentration of half-maximal effect); settings: HepG2 mitochondrial membrane potential, Mito-MPS dye ratio; ratio activity, negative = MMP loss: at 83.2 µM (top of the series) unless noted
# How it was run: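 Mitochondrial membrane potential tracked with Mito-MPS dye, red aggregates (ex 540/em 590 nm) against green monomers (ex 490/em 535 nm). Compound treatment 1 hr at 37C, dye 30 min in HepG2.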
# [12] = qHTS assay to identify small molecule antagonists of the androgen receptor (AR) signaling pathway - cell viability counter screen (AID 743033; active = well fitted curve in the direction sought with a large enough effect in the repeat runs; inconclusive = weak or mixed curves; inactive = no such curve, though single readings can be large; an effect the other way counts as inactive or inconclusive; note: potency is the fitted concentration of half-maximal effect; nearly all actives have a fitted effect of over 45% in size); settings: AR-bla HEK293 viability, CellTiter-Glo luminescence, 16 h; activity change, negative = cytotoxicity: at 58.5 µM (top of the series)
# [13] = qHTS assay for identifying genotoxic compounds that show differential cytotoxicity against isogenic chicken DT40 cell lines with known DNA damage response pathways - Rad54/Ku70 mutant cell line (AID 743015; active = well fitted curve in the direction sought with a large enough effect in the repeat runs; inconclusive = weak or mixed curves; inactive = no such curve, though single readings can be large; an effect the other way counts as inactive or inconclusive; note: potency is the fitted concentration of half-maximal effect; nearly all actives have a fitted effect of over 60% in size); settings: DT40 Rad54/Ku70 mutant viability, CellTiter-Glo, 40 h; activity change, negative = cytotoxicity: at 66.8 µM (top of the series)
# Tags give direction and shape of the fitted curve or compound fluorescence and quenching.
# Sequence of UniProt P04150 (P04150 whole entry, looked up): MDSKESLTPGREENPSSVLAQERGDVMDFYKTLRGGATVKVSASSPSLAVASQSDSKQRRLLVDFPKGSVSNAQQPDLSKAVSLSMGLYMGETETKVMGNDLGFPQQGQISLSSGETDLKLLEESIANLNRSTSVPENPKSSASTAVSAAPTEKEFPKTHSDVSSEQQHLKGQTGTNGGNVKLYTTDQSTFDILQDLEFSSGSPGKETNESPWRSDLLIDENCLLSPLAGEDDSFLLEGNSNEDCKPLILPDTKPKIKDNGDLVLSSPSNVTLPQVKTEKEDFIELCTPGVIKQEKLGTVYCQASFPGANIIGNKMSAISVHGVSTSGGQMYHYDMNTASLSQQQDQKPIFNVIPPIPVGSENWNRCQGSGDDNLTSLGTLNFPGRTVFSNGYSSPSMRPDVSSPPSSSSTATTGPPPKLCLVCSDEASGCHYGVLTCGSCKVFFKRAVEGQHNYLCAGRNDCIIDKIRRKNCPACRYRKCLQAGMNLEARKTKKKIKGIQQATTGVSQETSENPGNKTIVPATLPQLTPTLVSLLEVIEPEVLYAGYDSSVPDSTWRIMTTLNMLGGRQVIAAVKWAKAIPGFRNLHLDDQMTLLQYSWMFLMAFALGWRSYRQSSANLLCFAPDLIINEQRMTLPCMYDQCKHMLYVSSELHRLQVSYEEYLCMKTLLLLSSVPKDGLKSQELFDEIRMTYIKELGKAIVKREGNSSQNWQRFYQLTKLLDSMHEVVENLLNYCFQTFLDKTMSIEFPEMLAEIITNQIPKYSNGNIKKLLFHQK
compound,measurement,setting,value
ClC1=C(Cl)[C@]2(Cl)[C@H]3[C@H]([C@@H]4C=C[C@H]3C4)[C@@]1(Cl)C2(Cl)Cl,Potency,[1],"inconclusive: 68.5 µM [cytotoxic, single point] and inconclusive: 77 µM"
same,Potency,[2],"inconclusive: 68.5 µM [falling, partial curve, poor fit]"
same,Potency,[3],"inconclusive: 54.5 µM [cytotoxic, partial curve, poor fit]"
same,Potency,[4],"inconclusive: 54.9 µM [cytotoxic, single point] and inconclusive: 61.6 µM"
same,Potency,[5],"inconclusive: 61.6 µM [cytotoxic, single point]"
same,"activity change, negative = inhibition",[5],inconclusive: -24.4%
same,Potency,[6],inconclusive: 54.9 µM [cytotoxic]
same,Potency,[7],"inconclusive: 1.22 µM [rising, full curve]"
CCC(C)c1cccc(C(C)CC)c1O (centres undefined),Potency,[1],"inconclusive: 48.6 µM [falling, partial curve, poor fit]"
same,Potency,[8],"inconclusive: 77 µM [cytotoxic, single point]"
same,Potency,[9],inactive
same,Potency,[7],"inconclusive: 54.5 µM [cytotoxic, partial curve, poor fit]"
same,Potency,[10],"inconclusive: 21.7 µM [cytotoxic, full curve, poor fit]"
CCCCCCCCCCCCCCCCn1cc[n+](C)c1,Potency,[1],"inconclusive: 22.2 µM [cytotoxic, full curve] and inconclusive: 61.7 µM [cytotoxic, partial curve] and inconclusive: 24.4 µM [cytotoxic, full curve]"
same,Potency,[2],"inconclusive: 69.2 µM [falling, single point]"
same,Potency,[11],"inconclusive: 2.17 µM [activator, full curve]"
same,Potency,[4],"inconclusive: 25.1 µM [cytotoxic, full curve] and inconclusive: 35 µM [cytotoxic, partial curve] and inconclusive: 17.4 µM [cytotoxic, full curve]"
same,Potency,[6],inconclusive: 22.3 µM [cytotoxic]
Cc1cc(SCc2sc(-c3ccc(C(F)(F)F)c(F)c3)nc2C)ccc1OCC(=O)O,Potency,[1],"inconclusive: 48.6 µM [falling, partial curve]"
same,Potency,[2],"inconclusive: 77 µM [falling, partial curve, poor fit]"
same,Potency,[3],"inconclusive: 48.6 µM [cytotoxic, partial curve, poor fit]"
same,Potency,[11],"inconclusive: 8.63 µM [activator, partial curve]"
same,Potency,[4],"inconclusive: 49 µM [falling, partial curve]"
same,Potency,[5],inconclusive: 61.6 µM [cytotoxic]
same,Potency,[6],"inconclusive: 54.9 µM [cytotoxic, single point]"
same,Potency,[12],active: 38.9 µM
CC(C)(C)CC(C)(C)c1ccc(O)cc1,Potency,[1],inconclusive: 26.6 µM [cytotoxic] and inconclusive: 27.3 µM [cytotoxic]
same,Potency,[2],inconclusive: 26.6 µM
same,Potency,[4],"inconclusive: 26.8 µM [cytotoxic, single point] and inconclusive: 24.5 µM [cytotoxic]"
same,Potency,[5],inconclusive: 23.9 µM [cytotoxic] and inconclusive: 30.9 µM [cytotoxic]
same,Potency,[6],"inconclusive: 26.8 µM [cytotoxic, single point] and active: 24.5 µM"
same,Potency,[12],inconclusive: 19.5 µM [cytotoxic]
CCOP(=S)(OCC)SCn1nnc2ccccc2c1=O,Potency,[1],"inconclusive: 21.7 µM [falling, partial curve]"
same,Potency,[2],"inconclusive: 61.1 µM [falling, partial curve, poor fit]"
same,Potency,[3],active: 27.3 µM
same,Potency,[5],"inconclusive: 12.3 µM [inhibitor, full curve]"
Oc1ccc(C2(c3ccc(O)cc3)CCCCC2)cc1,Potency,[1],inconclusive: 65 µM
same,Potency,[8],"inconclusive: 57.9 µM [cytotoxic, single point]"
same,Potency,[4],"inconclusive: 58.4 µM [cytotoxic, single point]"
same,Potency,[5],"inconclusive: 58.4 µM [cytotoxic, single point]"
same,Potency,[6],"inconclusive: 58.4 µM [cytotoxic, single point]"
same,Potency,[7],"inconclusive: 65 µM [cytotoxic, single point]"
same,Potency,[13],active: 57.9 µM
same,Potency,[12],"inconclusive: 46.4 µM [cytotoxic, partial curve, poor fit]"
